This note sets out measurements from US12116397B2, “IL-IR-I binding polypeptide” (Swedish Orphan Biovitrum AB (publ), priority 2017, dated 2024).

This test has as its system TF-1 cells. The test is described as follows: In vitro IL-1β neutralization assay (TF-1 cell assay). As to conditions: His6-Z polypeptides, IL-1β inhibition in TF-1 cell assay, Table 20 (Example 9). The class given is cell-based. How it is done: The TF-1 cell line proliferates in response to many different cytokines including IL-1β. This cell line was used to assess the ability of primary IL-1R1 binders to inhibit IL-1β actions. TF-1 cells were maintained in RPM11640 with L-glutamine (Lonza) supplemented with 10% FCS (Gibco), Penicillin-Streptomycin (Lonza) and 2 ng/ml rhGM-CSF (R&D Systems). Prior to use, cells were washed twice in RPM11640 without rhGM-CSF. Cells were then counted and dispensed into 96 well flat bottomed plates at a density of 3×10^4 cells per well. In separate plates, serial dilutions of the inhibitory binders; His6-tagged IL-1R-I binding Z variants, with a concentration range of 400-0.1 nM, or the IL-1R-I binding protein Kineret (anakinra, Sobi), with a concentration range of 0.3-0.0003 nM, were incubated in the presence of 0.6 nM IL-1β (PeproTech). The pre-mixed complexes of the Z variant polypeptides and IL-13 were transferred to wells containing TF-1 cells. The cells were stimulated for 72 h at 37° C. in a humidified 5% CO2 atmosphere. During the last four hours of incubation, 19 μl of 2× diluted CCK-8 (Fluka, Sigma Aldrich), was added per well to determine the proliferative responses. The absorbance was measured at 450 nm using a microplate reader (Victor3, Perkin Elmer). The data on cell growth was assessed by non-linear regression to a four-parameter dose-response curve, and the half maximal inhibitory concentration (IC50) was determined using GraphPadPrism program.
His6-tagged IL-1R-I specific Z variants were tested for their inhibitory capacity in the TF-1 cell assay. The assay was run as described in Example 2. The data on cell growth was assessed by non-linear regression to a four-parameter dose-response curve, and IC50 values were determined using GraphPadPrism program. His6-tagged Z12967 was included for comparison.
His6-tagged IL-1R-I specific Z variants were tested for their inhibitory capacity in the TF-1 cell assay. The assay was run as described in Example 2. The data on cell growth was assessed by non-linear regression to a four-parameter dose-response curve, and IC50 values were determined using GraphPadPrism program. His6-tagged Z12967, Z16065, Z16163 and Z18557 were included for comparison.

As a reminder, the IC50 is the concentration needed to halve the response being measured. Higher therefore signals weaker potency in that assay.

B1: Z18814: Z variant differing from Z16065 only in position X5 of the BM (isoleucine) (protein)
chain: AQHDEALEVDAKYAKEVEEIQMEIFALPNLTRRQYTAFIRKLLDDPSQSSELLSEAKKLNDSQAPKVDYVLAEAKVLANRELDKYGVSDYYKNLINNAKTVEGVKALIDEILAALPYVPG
In turn, B1 had an IC50 of 0.4 nM.
